This is an account of results in the RNAGym collection of RNA variant scans (doi:10.1093/nar/gkz1192).

Read counts are not given, so values of variants with three or more changes are uncertain.

B1: CPEB3 Ribozyme (parent)
chain: UAACAGGGGGCCACAGCAGAAGCGUUCACGUCGCAGCCCCUGUCAGAUUCUGGUGAAUCUGCGAAUUCUGCUGUAUAUCUC

The variants in the data set derive from B1. The data set can be described thus: self-cleavage, relative activity (ratio to wild type); higher = more cleavage; in vitro, sequencing. The method in brief:
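Libraries of CPEB3 self-cleaving ribozyme mutants came from rounds of error-prone PCR and carried barcodes, which DNA sequencing matched to variants. In vitro transcription used T7 RNA polymerase at 37°C for 5 hours, with a further 15 min in DNase I before EDTA stopped the reaction; the ribozymes cleaved during both steps. The RNA was reverse transcribed with template switching and sequenced on Illumina. Relative activity is the cleaved/total read fraction of a variant divided by that of the unmutated ribozyme, averaged over three batches with at least 5 reads.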
In the case of UAACAGGGGGCCACUGCUGAAGCGUUCACGACGCAGCCCCUGUCAGAUUCUGGUGAAUCUGCGAAUUCUGCUGUAUAUCUC [A15U A18U U31A], the self-cleavage worked out at 0.14. The value for UAACAGGGGGCCACGGCAGAAGCGUUCACGUCGCAGCCCCUGUCAGAUUCUGGAGAACCUGCGAAUUCCGCUGUAUAUCUC [A15G U54A U58C U69C] was 0.31; that for UAACAGGGGGCCACGGCAGAAGCGUUCACGUCGCAGCCCCUGUCAGAUUCUGGCGAAUCUGCUAAUUCUGCUGUACAUCUC [A15G U54C G63U U76C] was 0.66. Turning to UAACAGGGGGCCACUGCAGGAGCGUUCACGUCGCAGCCCCUGUCAGAUUCUGGUGAAUCUGCGAAUUCUGCUGUAUUCCUC [A15U A20G A77U U78C], the self-cleavage stood at 0.51.

On to UAACAGGGGGCCACGGCAGAAGCGUUCACGUCGCAGCCCCUGUCAGAUUCUGGUGAACCUGCGAAUUCAGCUGUAUAUCUC [A15G U58C U69A], for which the self-cleavage worked out at 0.34. The value for UAACAGGGGGCCACUGCAGGAGCGUUCACGUCGCGACCCCUGCCAGAUUCUGGUGAAUCUGCGAAUUCUGCUGUAUAUCUC [A15U A20G A35G G36A U43C] was 0.15; that for UAACAGGGGGCCACGGCAGAAGCGUUCACGUCGCAGCCCCUGUCAGAUUCUGGUGAAUCCGCGAAUUCUGCUGUAUAUCCC [A15G U60C U80C] was 0.25.

For UAACAGGGGGCCACGGCAGAAGCGUUCACGUCGCAGCCCCUGUCAGAUCCUGGUGUAUCUGCGAAUUCUGCUGUAUAUCUC [A15G U49C A56U], the self-cleavage stood at 0.21.

UAACAGGGGGCCACGGCAGAAGCGUUCACGUCGCAGCCCCUGUCAGACCCUGGUGAAUCUGCGGAUUCUGCUGUAUAUCUC [A15G U48C U49C A64G]: the self-cleavage came out at 0.16. The same measure for UAACAGGGGGCCACUGCAGGAGCGUUCCCGUCACAGCCCCUGUCAGACUCUUGUGAAACUGCGAAUUCUGCUGUAUAUCUC [A15U A20G A28C G33A U48C G52U U58A]: 0.07; for UAACAGGGGGCCACGGCAGAAGCGUUCACGUCGCAGCCCCUGUCAGAUUCUGGUGAAUCAGCGAAUUCUGCUGCGUAUCUC [A15G U60A U74C A75G]: 0.41; for UAACAGGGGGCCACGGCAGAAGCGUUCACGUCGCAGCCCCUGUCAGACUCUGGUGAAUCCGCGAAUUCUGCUGUAUAUCUC [A15G U48C U60C]: 0.1. The same measure for UAACAGGGGGCCACGGCAGAAGCGUUCACGUCGCAGCCCCUGUCAGACUCUGGUGAGUCUGCGAAUACCGCUGUAUAUCUC [A15G U48C A57G U67A U69C]: 0.08. The value for UAACAGGGGGCCACGGCAGAAGCGUUCACGUCGCAGCCCCUGUCAGAUUCUGGUGAAUCUGCGAACUCUACUGUAUAUCUC [A15G U66C G70A] was 0.29; that for UAACAGGGGGCCACUGCAGCAGCGUUCACGUCGCAGCCCCUGUUAGAUUCUGGUGAAUCUGCGAAUUCUGCUGUACAUCUC [A15U A20C C44U U76C] was 0.24; that for UAACAGGGGGCCACGGCAGAAGCGUUCACGUCGCAGCCCCUGUCAGAUUCUGGCGAAUCUGCGAAUCCUGCUGUAUAUCUC [A15G U54C U67C] was 0.14. Regarding UAACAGGGGGCCACUGCGGAAGCGCUCACGUCGCAGCCCCUGUCGGAUUCUGGAGAAUCUGCGAAUUCUGCUGUAUAUCUC [A15U A18G U25C A45G U54A], the self-cleavage stood at 0.42. The same measure for UAACAGGGGGCCACGGCAGAAGCGUUCACGUCGCAGCCCCUGUCAGAUACUGGUGAAUCUGCGGAUUCUGCUGUAUAUCUC [A15G U49A A64G]: 0.28; for UAACAGGGGGCCACGGCAGAAGCGUUCACGUCGCAGCCCCUGUCAGAUUCCGGUGAAUUUGCGAAUUCUGCUGUAUAUCUC [A15G U51C C59U]: 0.66; for UAACAGGGGGCCACGGCAGAAGCGUUCACGUCGCAGCCCCUGUCAGACUCUGGCGAAUCUGCGAAUUCUGCUGUACAUCUC [A15G U48C U54C U76C]: 0.2. The same measure for UAACAGGGGGCCACGGCAGAAGCGUUCACGUCGCAGCCCCUGUCAGAUUCUGGCGUAUCUGCGAACUCCGCUGUAUAACUC [A15G U54C A56U U66C U69C U78A]: 0.18; for UAACAGGGGGCCACGGCAGAAGCGUUCACGUCGCAGCCCCUGCCAGAUUCUGGUGAAUCUGCGUAUUCUGCUGUAUAUCUC [A15G U43C A64U]: 0.14; for UAACAGGGGGCCACGGCAGAAGCGUUCACGUCGCAGCCCCUGUCAGAUUCUGGUGAAUCAGCGAAUUCUGCCGUAUAUCUC [A15G U60A U72C]: 0.61. On to UAACAGGGGGCCACGGCAGAAGCGUUCACGUCGCAGCCCCUGUCAGAUCCUGGUGAAUCCGCGAAUUCUGCUGUAUAUCCC [A15G U49C U60C U80C], for which the self-cleavage turned out to be 0.23. The same measure for UAACAGGGGGCCACUGCGGAAGCGUUCACGCCGCAGCCCCUGCCUGAUUCUGGUGAAUCUGCGAAUUCUGCUGUAUAUCUC [A15U A18G U31C U43C A45U]: 0.2. The value for UAACAGGGGGCCACGGCAGAAGCGUUCACGUCGCAGCCCCUGUCAGAUUCUGGUGAACCUGCGAAUUCCGCUGUAUAUCUG [A15G U58C U69C C81G] was 0.23.

For the variant UAACAGGGGGCCACGGCAGAAGCGUUCACGUCGCAGCCCCUGUCAGAUUCUGGUGAAUCUGCGAAUCCUGCUGUAUAUCCC [A15G U67C U80C], the self-cleavage was determined as 0.24. The same measure for UAACAGGGGGCCACUGCAGGAGCGUUCACGUCGCGGCCCCUGUCAGAUUCUGGUGAAUCUGCGAAUUCUGCUGUAUAUCUC [A15U A20G A35G]: 0.92; for UAACAGGGGGCCACUGCGGAAGCGUUCACGUCGCAGCCCCUGUCGGAUCCUGGUGAAUAUGCGGAUUCUGCUGUAUAUCUC [A15U A18G A45G U49C C59A A64G]: 0.1; for UAACAGGGGGCCACGGCAGAAGCGUUCACGUCGCAGCCCCUGUCAGAUUCGGAUGAAUCUGCGAAUUCUGCUGUAUAUCUC [A15G U51G G53A]: 1.13. The value for UAACAGGGGGCCACGGCAGAAGCGUUCACGUCGCAGCCCCUGCCAGAUCCUGGUGAAUCCGCGAAUUCUGCUGUAUAUCUC [A15G U43C U49C U60C] was 0.07; that for UAACAGGGGGCCACUGCGGAAGCGUUCACGUCGCAGCCCCUGUCAGAUUCUGGUGAAUCUGCGAGUUCUGUUGUAUAUCAC [A15U A18G A65G C71U U80A] was 0.13. The value for UAACAGGGGGCCACUGCUGAAGCGUUCAUGUCGCAGCCCCUGUCAGAUUCUAGUGAAUCUGCGAAUUCUGCUGUAUAUCUC [A15U A18U C29U G52A] was 0.41; that for UAACAGGGGGCCACGGCAGAAGCGUUCACGUCGCAGCCCCUGUCAGAUUCUGGUGAAUCCGCGAAUUCUGCAGUAUAUCGC [A15G U60C U72A U80G] was 0.33.
